Laboratory results as given in the supplement of paper PMC4967469.
A lower IC50 marks a more sensitive line; where the fit passes the top or lowest dose, that dose stands as a limit. AUC, from the same fit, is the share of area under the viability curve across the 256-fold dose range; the more sensitive the line, the further below 1. For some assays here: A top dose marked as inferred was calculated from the reported fits. For some assays here: An entry number marks a drug with two screens in the source, which often give different values.

How the values were obtained:
Test in all cases: Viability of human cancer cell lines after 72 h of drug (GDSC screen)
ABT-888 = compound: C[C@]1(c2nc3c(C(N)=O)cccc3[nH]2)CCCN1 [ABT-888]; details: top dose 5 µM; top dose inferred
Protocol: (§1)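 Human cancer cell lines in 384-well plates, medium with 10% serum, drug for 72 h over a 256-fold dose range (nine 2-fold or five 4-fold steps up to the top dose). Adherent lines were fixed and stained with the nucleic acid dye Syto60, suspension lines read with resazurin; signal relative to control wells, capped at 0 and 100%. One two-parameter sigmoid per drug and line, fitted in a mixed model over all curves with the slope shared within a line.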

CHIR-99021 = compound: Cc1cnc(-c2cnc(NCCNc3ccc(C#N)cn3)nc2-c2ccc(Cl)cc2Cl)[nH]1 [CHIR-99021]
Protocol: as §1

(5Z)-7-Oxozeaenol = compound: COc1cc(O)c2c(c1)/C=C/C[C@H](O)[C@H](O)C(=O)/C=C\C[C@H](C)OC2=O [(5Z)-7-Oxozeaenol]; details: top dose 10 µM; top dose inferred
Protocol: as §1

GSK269962A = compound: CCn1c(-c2nonc2N)nc2cnc(Oc3cccc(NC(=O)c4ccc(OCCN5CCOCC5)cc4)c3)cc21 [GSK269962A]; details: top dose inferred
Protocol: as §1

Thapsigargin = compound: C/C=C(/C)C(=O)O[C@H]1C(C)=C2[C@H]([C@@H]1OC(=O)CCCCCCC)[C@@](C)(OC(C)=O)C[C@H](OC(=O)CCC)[C@@]1(O)[C@H]2OC(=O)[C@@]1(C)O [Thapsigargin]; details: top dose 0.512 µM; top dose inferred
Protocol: as §1

CP466722 = compound: COc1cc2ncnc(-n3nc(-c4ccccn4)nc3N)c2cc1OC [CP466722]; details: top dose 16 µM; top dose inferred
Protocol: as §1

MPS-1-IN-1 = compound: COc1cc(N2CCC(O)CC2)ccc1Nc1cc(Nc2ccccc2S(=O)(=O)C(C)C)c2cc[nH]c2n1 [MPS-1-IN-1]; details: top dose 20 µM; top dose inferred
Protocol: as §1

ABT-869 = compound: Cc1ccc(F)c(NC(=O)Nc2ccc(-c3cccc4[nH]nc(N)c34)cc2)c1 [ABT-869]; details: top dose 1.024 µM; top dose inferred
Protocol: as §1

KU-55933 = compound: O=c1cc(-c2cccc3c2Sc2ccccc2S3)oc(N2CCOCC2)c1 [KU-55933]; details: top dose 10 µM
Protocol: as §1

Zibotentan = compound: COc1nc(C)cnc1NS(=O)(=O)c1cccnc1-c1ccc(-c2nnco2)cc1 [Zibotentan]; details: top dose 20 µM; top dose inferred
Protocol: as §1

QL-X-138 = compound: C=CC(=O)Nc1cc(-n2c(=O)ccc3cnc4ccc(-c5cn[nH]c5)cc4c32)ccc1C [QL-X-138]; details: top dose 10.24 µM; top dose inferred
Protocol: as §1

[1] = top dose 2.56 µM, screen: GDSC drug entry 154
[2] = top dose 10 µM, screen: GDSC drug entry 1241, top dose inferred
[3] = top dose 5 µM, screen: GDSC drug entry 1192
[4] = top dose 2.5 µM, screen: GDSC drug entry 127

Cell Line | AUC (ABT-888) | IC50 (ABT-888) [µM] | AUC (CHIR-99021; [1]) | IC50 (CHIR-99021; [1]) [µM] | AUC (CHIR-99021; [2]) | IC50 (CHIR-99021; [2]) [µM] | AUC ((5Z)-7-Oxozeaenol) | IC50 ((5Z)-7-Oxozeaenol) [µM] | AUC (GSK269962A; [3]) | IC50 (GSK269962A; [3]) [µM] | AUC (Thapsigargin) | IC50 (Thapsigargin) [µM] | AUC (CP466722) | IC50 (CP466722) [µM] | AUC (MPS-1-IN-1) | IC50 (MPS-1-IN-1) [µM] | AUC (ABT-869) | IC50 (ABT-869) [µM] | AUC (KU-55933) | IC50 (KU-55933) [µM] | AUC (Zibotentan) | IC50 (Zibotentan) [µM] | AUC (QL-X-138) | IC50 (QL-X-138) [µM] | AUC (GSK269962A; [4]) | IC50 (GSK269962A; [4]) [µM]
SU8686 (pancreas, adherent) | 0.986 | > 5 | 0.986 | > 2.56 | 0.948 | > 10 | 0.844 | 8.52 | 0.984 | > 5 | 0.377 | 0.0141 | 0.936 | > 16 | 0.974 | > 20 | 0.984 | > 1.02 | 0.975 | > 10 | 0.984 | > 20 | 0.907 | > 10.2 |  | 
SU-DHL-5 (B-cell lymphoma, suspension) | 0.994 | > 5 | 0.96 | > 2.56 | 0.875 | 5.85 | 0.354 | 0.275 | 0.423 | 0.203 | 0.096 | 0.0027 | 0.695 | 3 | 0.839 | 9.04 | 0.994 | > 1.02 | 0.921 | 8.62 | 0.99 | > 20 | 0.361 | 0.292 |  | 
SW620 (large intestine, adherent) | 0.989 | > 5 | 0.99 | > 2.56 | 0.987 | > 10 | 0.434 | 0.423 | 0.929 | > 5 | 0.148 | 0.00314 | 0.777 | 5.67 | 0.876 | 15.9 | 0.977 | > 1.02 | 0.99 | > 10 | 0.989 | > 20 | 0.671 | 1.8 |  | 
Saos-2 (osteosarcoma, adherent) | 0.979 | > 5 | 0.97 | > 2.56 | 0.978 | > 10 | 0.743 | 4.27 | 0.705 | 1.53 | 0.447 | 0.0215 | 0.981 | > 16 | 0.981 | > 20 | 0.981 | > 1.02 | 0.977 | > 10 | 0.981 | > 20 | 0.951 | > 10.2 |  | 
T-T (oesophagus, adherent) | 0.983 | > 5 | 0.981 | > 2.56 | 0.948 | > 10 | 0.805 | 5.04 | 0.868 | 4.52 | 0.055 | < 0.002 | 0.971 | > 16 | 0.889 | > 20 | 0.987 | > 1.02 | 0.9 | > 10 | 0.987 | > 20 | 0.904 | > 10.2 |  | 
TK (B-cell lymphoma, suspension) | 0.99 | > 5 | 0.99 | > 2.56 | 0.981 | > 10 | 0.751 | 3.04 | 0.952 | > 5 | 0.382 | 0.0156 | 0.724 | 4.04 | 0.812 | 9.54 | 0.984 | > 1.02 | 0.99 | > 10 | 0.989 | > 20 | 0.569 | 0.968 | 0.926 | > 2.5
TMK-1 (stomach, adherent) | 0.986 | > 5 | 0.92 | > 2.56 | 0.851 | 8.37 | 0.69 | 2.2 | 0.913 | > 5 | 0.201 | 0.00389 | 0.95 | > 16 | 0.931 | > 20 | 0.981 | > 1.02 | 0.925 | > 10 | 0.985 | > 20 | 0.91 | > 10.2 |  | 
TOV-21G (ovary, adherent) | 0.94 | > 5 | 0.982 | > 2.56 | 0.9 | > 10 | 0.577 | 1.03 | 0.851 | 4.35 | 0.894 | > 0.512 | 0.782 | 7.29 | 0.985 | > 20 | 0.978 | > 1.02 | 0.961 | > 10 | 0.981 | > 20 | 0.983 | > 10.2 |  | 
TT2609-C02 (thyroid, adherent) | 0.98 | > 5 | 0.944 | > 2.56 | 0.948 | > 10 | 0.838 | 7.44 | 0.929 | > 5 | 0.079 | < 0.002 | 0.979 | > 16 | 0.96 | > 20 | 0.978 | > 1.02 | 0.951 | > 10 | 0.98 | > 20 | 0.762 | 3.91 |  | 
TT (thyroid, adherent) | 0.97 | > 5 | 0.982 | > 2.56 | 0.974 | > 10 | 0.901 | > 10 | 0.948 | > 5 | 0.802 | 0.378 | 0.965 | > 16 | 0.928 | > 20 | 0.981 | > 1.02 | 0.973 | > 10 | 0.983 | > 20 | 0.974 | > 10.2 |  | 
